Reference: the supplement of paper PMC4967469

Tests used:
Assay in all cases: Viability of human cancer cell lines after 72 h of drug (GDSC screen)
TG101348 = compound: Cc1cnc(Nc2ccc(OCCN3CCCC3)cc2)nc1Nc1cccc(S(=O)(=O)NC(C)(C)C)c1 [TG101348]; settings: top dose 10.24 µM
Description: (§1)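 Human cancer cell lines in 384-well plates, medium with 10% serum, drug for 72 h over a 256-fold dose range (nine 2-fold or five 4-fold steps up to the top dose). Adherent lines were fixed and stained with the nucleic acid dye Syto60, suspension lines read with resazurin; signal relative to control wells, capped at 0 and 100%. One two-parameter sigmoid per drug and line, fitted in a mixed model over all curves with the slope shared within a line.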

VX-11e = compound: Cc1cnc(Nc2ccc(F)cc2Cl)nc1-c1c[nH]c(C(=O)N[C@H](CO)c2cccc(Cl)c2)c1 [VX-11e]; settings: top dose 5.12 µM; top dose inferred
Description: as §1

Dimethyloxalylglycine = compound: COC(=O)CNC(=O)C(=O)OC [Dimethyloxalylglycine]; settings: top dose 4000 µM; top dose inferred
Description: as §1

OSI-027 = compound: COc1cccc2cc(-c3nc([C@H]4CC[C@H](C(=O)O)CC4)n4ncnc(N)c34)[nH]c12 [OSI-027]; settings: top dose 20 µM
Description: as §1

Doxorubicin = compound: COc1cccc2c1C(=O)c1c(O)c3c(c(O)c1C2=O)C[C@@](O)(C(=O)CO)C[C@@H]3O[C@H]1C[C@H](N)[C@H](O)[C@H](C)O1 [Doxorubicin]; settings: top dose 1.024 µM
Description: as §1

BIX02189 = compound: CN(C)Cc1cccc(N=C(c2ccccc2)c2c(O)[nH]c3cc(C(=O)N(C)C)ccc23)c1 [BIX02189]; settings: top dose 20 µM; top dose inferred
Description: as §1

UNC1215 = compound: O=C(c1ccc(C(=O)N2CCC(N3CCCC3)CC2)c(Nc2ccccc2)c1)N1CCC(N2CCCC2)CC1 [UNC1215]; settings: top dose 1 µM; top dose inferred
Description: as §1

17-AAG = compound: C=CCNC1=C2C[C@@H](C)C[C@H](OC)[C@H](O)[C@@H](C)/C=C(\C)[C@H](OC(N)=O)[C@@H](OC)/C=C\C=C(/C)C(=O)NC(=CC1=O)C2=O [17-AAG]; settings: top dose 1 µM
Description: as §1

CCT018159 = compound: CCc1cc(-c2n[nH]c(C)c2-c2ccc3c(c2)OCCO3)c(O)cc1O [CCT018159]; settings: top dose 10 µM; top dose inferred
Description: as §1

Vismodegib = compound: CS(=O)(=O)c1ccc(C(=O)Nc2ccc(Cl)c(-c3ccccn3)c2)c(Cl)c1 [Vismodegib]; settings: top dose 10 µM; top dose inferred
Description: as §1

BMX-IN-1 (QL-XII-61) = compound: C=CC(=O)Nc1cc(-n2c(=O)ccc3cnc4ccc(-c5ccc(NS(C)(=O)=O)cc5)cc4c32)ccc1C [BMX-IN-1 (QL-XII-61)]; settings: top dose 10 µM; top dose inferred
Description: as §1

Cell Line	AUC (TG101348)	IC50 (TG101348) [µM]	AUC (VX-11e)	IC50 (VX-11e) [µM]	AUC (Dimethyloxalylglycine)	IC50 (Dimethyloxalylglycine) [µM]	AUC (OSI-027)	IC50 (OSI-027) [µM]	AUC (Doxorubicin)	IC50 (Doxorubicin) [µM]	AUC (BIX02189)	IC50 (BIX02189) [µM]	AUC (UNC1215)	IC50 (UNC1215) [µM]	AUC (17-AAG)	IC50 (17-AAG) [µM]	AUC (CCT018159)	IC50 (CCT018159) [µM]	AUC (Vismodegib)	IC50 (Vismodegib) [µM]	AUC (BMX-IN-1 (QL-XII-61))	IC50 (BMX-IN-1 (QL-XII-61)) [µM]
SH-4 (melanoma, adherent)	0.909	> 10.2	0.615	0.787	0.773	2520	0.636	3.65	0.553	0.0965	0.928	> 20	0.959	> 1	0.593	0.129	0.936	> 10	0.974	> 10	0.97	> 10
SHP-77 (small cell lung carcinoma, semi-adherent)	0.876	8.33	0.954	> 5.12	0.691	804	0.511	1.34	0.98	> 1.02	0.971	> 20	0.968	> 1	0.88	0.847	0.877	8.2	0.991	> 10	0.987	> 10
SIMA (neuroblastoma, adherent)	0.753	3.82	0.886	> 5.12	0.646	669	0.715	5.57	0.774	0.456	0.915	> 20	0.984	> 1	0.985	> 1	0.918	> 10	0.985	> 10	0.983	> 10
SJRH30 (rhabdomyosarcoma, adherent)	0.706	2.5	0.986	> 5.12	0.753	1370	0.454	0.93	0.628	0.146	0.986	> 20	0.956	> 1	0.911	> 1	0.9	> 10	0.986	> 10	0.966	> 10
SK-MEL-1 (melanoma, suspension)	0.978	> 10.2	0.922	> 5.12	0.844	2310	0.849	12.1	0.963	> 1.02	0.98	> 20	0.989	> 1	0.918	> 1	0.991	> 10	0.983	> 10	0.993	> 10
SK-MEL-3 (melanoma, adherent)	0.827	7.64	0.844	4.54	0.533	311	0.565	1.94	0.62	0.144	0.915	> 20	0.983	> 1	0.87	> 1	0.97	> 10	0.982	> 10	0.981	> 10
SK-MEL-30 (melanoma, adherent)	0.844	7.95	0.657	0.895	0.619	541	0.547	1.69	0.41	0.0359	0.96	> 20	0.984	> 1	0.848	0.808	0.942	> 10	0.975	> 10	0.984	> 10
SK-MES-1 (lung squamous cell carcinoma, adherent)	0.699	2.45	0.951	> 5.12	0.459	191	0.481	1.1	0.404	0.0341	0.971	> 20	0.983	> 1	0.435	0.0408	0.894	> 10	0.976	> 10	0.959	> 10
SK-MM-2 (myeloma, suspension)	0.54	0.828	0.936	> 5.12	0.354	96.7	0.21	0.167	0.876	> 1.02	0.91	> 20	0.984	> 1	0.977	> 1	0.987	> 10	0.987	> 10	0.979	> 10
SK-N-SH (neuroblastoma, adherent)	0.93	> 10.2	0.979	> 5.12	0.493	240	0.392	0.635	0.489	0.0596	0.949	> 20	0.977	> 1	0.97	> 1	0.901	> 10	0.985	> 10	0.973	> 10
SLVL (B-cell lymphoma, suspension)	0.606	1.28	0.882	> 5.12	0.876	> 4000	0.216	0.173	0.537	0.0812	0.875	> 20	0.98	> 1	0.891	> 1	0.964	> 10	0.981	> 10	0.939	> 10
SNG-M (endometrium, adherent)	0.65	1.65	0.833	3.19	0.834	2520	0.347	0.474	0.295	0.0172	0.92	> 20	0.982	> 1	0.944	> 1	0.797	4.6	0.977	> 10	0.664	1.76
SNU-C2B (large intestine, adherent)	0.864	> 10.2	0.816	4.04	0.872	> 4000	0.849	> 20	0.765	0.493	0.952	> 20	0.978	> 1	0.853	> 1	0.926	> 10	0.969	> 10	0.978	> 10
SR (lymphoid neoplasm, suspension)	0.436	0.435	0.901	> 5.12	0.069	< 15.6	0.087	< 0.0781	0.303	0.0191	0.783	7.53	0.987	> 1	0.53	0.0747	0.863	7.26	0.973	> 10	0.827	5.29
SU8686 (pancreas, adherent)	0.986	> 10.2	0.976	> 5.12	0.581	428	0.82	13.4	0.716	0.284	0.978	> 20	0.984	> 1	0.605	0.126	0.94	> 10	0.985	> 10	0.932	> 10
SW48 (large intestine, adherent)	0.943	> 10.2	0.849	3.83	0.797	1870	0.848	14.7	0.515	0.0702	0.979	> 20	0.985	> 1	0.417	0.037	0.812	5.32	0.985	> 10	0.904	> 10
SW684 (fibrosarcoma, adherent)	0.977	> 10.2	0.983	> 5.12	0.775	2370	0.926	> 20	0.976	> 1.02	0.983	> 20	0.98	> 1	0.519	0.0721	0.897	> 10	0.954	> 10	0.968	> 10
SW948 (large intestine, adherent)	0.834	> 10.2	0.787	3.47	0.835	> 4000	0.654	4.09	0.964	> 1.02	0.96	> 20	0.98	> 1	0.951	> 1	0.982	> 10	0.981	> 10	0.98	> 10
SW1271 (small cell lung carcinoma, adherent)	0.753	3.91	0.68	1.11	0.397	125	0.508	1.32	0.492	0.0605	0.736	6.63	0.982	> 1	0.964	> 1	0.948	> 10	0.984	> 10	0.982	> 10
SW1710 (bladder, adherent)	0.827	6.52	0.937	> 5.12	0.496	244	0.298	0.332	0.309	0.0182	0.89	> 20	0.974	> 1	0.718	0.266	0.929	> 10	0.976	> 10	0.797	4.9
SW1783 (glioma, adherent)	0.991	> 10.2	0.991	> 5.12	0.418	152	0.809	9.19	0.579	0.103	0.991	> 20	0.989	> 1	0.769	–	0.891	9.68	0.991	> 10	0.99	> 10

A lower IC50 marks a more sensitive line; fits outside the tested doses are given as limits. The AUC spans the tested range (256-fold, ending at the top dose) of the same fit; it is 1 without any effect and falls as sensitivity rises. For some assays here: An inferred top dose is not printed in the source and was worked back from the curve model.
